# The campaign covered roughly 2,100 compounds. About 1,100 (52%) were called active. The set was probably picked from earlier hits. Inconclusive results, whose numbers are uncertain, are shown with a selection of clear calls. Calls follow the shape of the dose curve; as a rule, active = well fitted inhibition curve with a large enough effect; inconclusive = small, poorly fitted or top-dose-only effect; inactive = no such curve, though single readings can be large or run the other way. No potency is given beside an inconclusive call; the fits are too rough.
# Biological target: DNA dC->dU-editing enzyme APOBEC-3F (Homo sapiens) (UniProt Q8IUX4)
# Assay: qHTS for inhibitors of Vif-A3F interactions: Cherry picks counterscreen; also: nearly all actives have a fitted effect of over 65% in size
# Details: HeLa A3F-eYFP/Vif cells, eYFP fluorescence, 24 h; series mostly up to 46.1 µM
# Method in brief: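 HeLa cells stably expressing A3F-eYFP and Vif, cultured overnight, then treated 24 h at 37 degrees C with compounds at several concentrations; yellow fluorescence (488 nm Ex/500-530 nm Em) imaged on Acumen; MG132 positive control.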
# Potency is read from the fitted curve at half-maximal effect; tags tell the direction and shape of the fitted curve.
# Chain of UniProt Q8IUX4 (Q8IUX4 whole entry, looked up): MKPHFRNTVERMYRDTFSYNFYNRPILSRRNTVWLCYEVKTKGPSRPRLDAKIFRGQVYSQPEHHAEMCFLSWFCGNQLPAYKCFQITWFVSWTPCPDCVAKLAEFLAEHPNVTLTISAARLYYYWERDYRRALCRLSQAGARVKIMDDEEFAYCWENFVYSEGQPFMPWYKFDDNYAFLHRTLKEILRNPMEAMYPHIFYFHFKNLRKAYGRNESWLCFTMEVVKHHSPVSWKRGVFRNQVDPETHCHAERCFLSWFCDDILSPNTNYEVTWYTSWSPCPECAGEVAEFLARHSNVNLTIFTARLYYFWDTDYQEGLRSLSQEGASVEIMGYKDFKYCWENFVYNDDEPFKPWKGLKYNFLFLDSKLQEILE
row,SMILES,Potency
1,O=C(Cn1ncc(Cl)c(Cl)c1=O)NC(=O)NC1CCCCC1,"inconclusive [inhibitor, partial curve]"
2,Cc1nc2ccc(NC(=O)c3cc(S(=O)(=O)N(C)c4ccccc4)ccc3Cl)cc2s1,"inconclusive [inhibitor, partial curve]"
3,Cc1cccn2c(=O)c3cc(C#N)c(=NC(=O)c4cccs4)n(CCCOC(C)C)c3nc12,"inconclusive [inhibitor, single point]"
4,Nc1nonc1-c1nc2ccccc2n1CC(=O)Nc1cccc(C(F)(F)F)c1,"inconclusive [inhibitor, single point]"
5,C/C(=N\NC(=O)c1cc(C)nc2ccccc12)c1ccncc1,inactive
6,CC(=O)Nc1ccc(Nc2c3c4c(cccc4n(C)c2=O)C(=O)c2ccccc2-3)cc1,inactive
7,Cc1cc(C)nc(Nc2n[nH]c(COc3cccc4ccccc34)n2)n1,"inconclusive [inhibitor, single point]"
8,CNCC(O)Cn1c2c(c3ccccc31)CCCC2 (stereo unspecified),inactive
9,O=C(/C=C/c1ccco1)NC(=S)Nc1cccc(-c2nc3ccccc3o2)c1,active: 4.98 µM
10,Cc1ccc(/C(C#N)=C\c2ccc(N3CCOCC3)o2)cc1,active: 15.8 µM
11,Cc1ccccc1Cn1c(=N)n(CC(=O)c2ccc([N+](=O)[O-])cc2)c2ccccc21,"inconclusive [inhibitor, single point]"
12,COCCNC(=S)NN=C1CCCCCC1,inactive
13,COc1ccc(S(=O)(=O)NCc2ccccn2)cc1NC(=O)c1ccccc1,"inconclusive [inhibitor, partial curve]"
14,O=C1NC(c2ccc(Br)cc2)Nc2ccccc21 (stereo unspecified),"inconclusive [inhibitor, full curve]"
15,Cc1ccc2oc(/N=C(\N)NC(=O)C(C)(C)C)nc2c1,inactive
16,NC1=NC(=O)/C(=C/c2cc(Br)c(O)c(Br)c2)S1,"inconclusive [inhibitor, single point]"
17,CN1/C(=C\C=C2/SC(=S)N(CC(=O)O)C2=O)C(C)(C)c2ccccc21,inactive
18,CN(C)c1ccc(/C=C(\C#N)c2nc3ccccc3c(=O)[nH]2)cc1,"inconclusive [inhibitor, full curve, poor fit]"
19,CSc1nc2ccccc2cc1/C=C(\C#N)c1ccccc1,"inconclusive [inhibitor, full curve]"
20,S=C(NCc1ccco1)Nc1ccc(Cl)cn1,inactive
21,COc1ccc(NC(=O)C2(C)Cc3c(-c4ccc5c(c4)OCO5)ccnc3O2)cn1 (stereo unspecified),"inconclusive [inhibitor, full curve]"
22,Cc1ccccc1OCC(=O)N/N=C/c1ccc(N(C)C)cc1,"inconclusive [inhibitor, single point]"
23,CS(=O)(=O)Nc1ccc(C2=NN(S(=O)(=O)c3ccccc3)C(c3cccs3)C2)cc1 (stereo unspecified),"inconclusive [inhibitor, single point]"

row,SMILES,Potency
1,O=S(=O)(Nc1nc2ccccc2nc1N1CCN(c2ccccn2)CC1)c1ccc(Cl)cc1,active: 16.4 µM
2,NC(=S)N/N=C/c1ccccc1OC(=O)/C=C/c1ccccc1,inactive
3,Cc1ccccc1NC(=O)CSc1nc2cc3c(cc2cc1C)CCC3,"inconclusive [inhibitor, full curve]"
4,COc1cccc(Cn2c3ccc(NC(=O)CCc4ccc(F)cc4)cc3c(=O)n2C)c1,"inconclusive [inhibitor, single point]"
5,Cn1c(=O)c2cc(NC(=O)NCc3ccc(F)cc3)ccc2n1C/C=C/c1ccccc1,"inconclusive [inhibitor, partial curve]"
6,CNC(=O)C(Sc1nc(C)nc2c1oc1ccccc12)C(C)=O (stereo unspecified),inactive
7,CCOc1ccccc1N1CC(c2nc3ccccc3n2Cc2c(C)cc(C)cc2C)CC1=O (stereo unspecified),inactive
8,Cc1ccc2nc(-c3ccccn3)c(NC3CCCC3)n2c1,inactive
9,Cc1nnc(N2C(=O)c3cccc4c([N+](=O)[O-])ccc(c34)C2=O)s1,active: 20.6 µM
10,COc1cccc(C(=O)N/N=C/C(Br)=C/c2ccccc2)c1,active: 2.8 µM
11,COc1ccc(/C=N/n2cc(-c3ccccc3)nc2N)cc1,"inconclusive [inhibitor, partial curve, poor fit]"
12,COc1cc(/C=N/NC(=O)c2[nH]nc3c2CCc2ccccc2-3)ccc1O,"inconclusive [inhibitor, single point]"
13,COc1ccc(/C=C2/CSC/C(=C/c3ccc(OC)c(OC)c3)C2=O)cc1OC,"inconclusive [inhibitor, single point]"
14,Cc1ccc2c(c1)Oc1ccc(NC(=O)CCl)cc1C(=O)N2,"inconclusive [inhibitor, partial curve]"
15,C(=C/c1nccc2c1[nH]c1ccccc12)/c1ccc2c(c1)OCO2,inactive
16,N#Cc1ccc(-c2ccco2)nc1SCc1ccccc1,"inconclusive [inhibitor, partial curve, poor fit]"
17,CC1C/C(=N\NC(N)=S)c2cc(Cl)ccc2S1 (stereo unspecified),inactive
18,CN(C)c1ccccc1-c1cc(NC=O)c2ncc(-c3cccc(C(F)(F)F)c3)n2c1,"inconclusive [inhibitor, single point]"
19,CCOC(=O)C1=C(C)N=c2sc(=Cc3cc(Cl)c(OCC(=O)O)c(Cl)c3)c(=O)n2C1c1cccc(OC)c1 (stereo unspecified),"inconclusive [inhibitor, single point]"
20,COc1ccc(NC(=O)c2c(C)noc2-c2snnc2C)cc1,"inconclusive [inhibitor, single point]"
21,CCCCCCc1cc2cc(-c3nnc(-c4ccccc4O)o3)c(=O)oc2cc1O,inactive
22,Cn1c2ccccc2c2ccc3c(c21)C(=O)C=CC3=O,"inconclusive [inhibitor, partial curve, poor fit]"
23,Cn1c(=O)c2cc(NC(=O)NCc3ccccc3)ccc2n1C/C=C/c1ccccc1,"inconclusive [inhibitor, single point]"
